Several values for one entry are separate records, joined by “and”; a condition that tells them apart may be missing. Equal entries are not always repeated. This list was built around the results that the source calls inconclusive (neither active nor inactive); the mix of calls is not that of the screen. For part of these data: Where the call is inconclusive, the potency comes from a doubtful curve fit. A structure can be active in one record and inactive in another. Activity calls are given as the source filed them. Calls follow the shape of the dose curve; as a rule, active = well fitted curve in the direction sought with a large enough effect in the repeat runs; inconclusive = weak or mixed curves; inactive = no such curve, though single readings can be large; an effect the other way counts as inactive or inconclusive.
Experiments:
[1] = A CellTox Green Cytotoxicity Assay to monitor cytotoxicity in HepG2 cells - 40 hour (AID 1224879); also: nearly all actives have a fitted effect of over 40% in size
Procedure, shortened: (§1)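 Read-out is fluorescence of a cyanine dye excluded from live cells that stains DNA of dead HepG2 cells, with signal proportional to cytotoxicity. Plates were read at 0, 8, 16, 24, 32 and 40 h after compound addition.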

[2] = qHTS RealTime-Glo MT Cell Viability Assay in HepG2 cells - 0 hour (AID 1224889); also: nearly all actives have a fitted effect of over 50% in size
Procedure, shortened: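 Luminescence read-out: viable HepG2 cells reduce a prosubstrate to a NanoLuc substrate, giving a signal proportional to live cell number. Reads taken at 0, 8, 16, 24, 32 and 40 h of compound exposure at 37 C.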

[3] = qHTS RealTime-Glo MT Cell Viability Assay in HEK293 cells - 8 hour (AID 1224887); also: nearly all actives have a fitted effect of over 50% in size
Procedure, shortened: (§2)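 Cells were seeded together with NanoLuc luciferase and a prosubstrate that viable cells reduce to a luciferase substrate. After a 5 h incubation at 37 C/5% CO2, compounds were added and luminescence was measured repeatedly during 40 h of treatment.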

[4] = qHTS RealTime-Glo MT Cell Viability Assay in HEK293 cells - 0 hour (AID 1224880); also: nearly all actives have a fitted effect of over 45% in size
Procedure, shortened: as §2

[5] = A CellTox Green Cytotoxicity Assay to monitor cytotoxicity in HEK293 cells - 8 hour (AID 1224884); also: nearly all actives have a fitted effect of over 35% in size
Procedure, shortened: (§3)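 Nonlytic real-time cytotoxicity: HEK293 + CellTox Green reagent plated, 5 h preincubation, pintool compound addition (23 nL in DMSO), 37 C for 40 h, fluorescence measured at successive time points.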

[6] = qHTS RealTime-Glo MT Cell Viability Assay in HEK293 cells - 24 hour (AID 1224886); also: nearly all actives have a fitted effect of over 50% in size
Procedure, shortened: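 Nonlytic real-time viability readout: viable cells convert prosubstrate to NanoLuc substrate, giving luminescence proportional to live cell number. HEK293, 600 cells/well, compound added after 5 h, continuous culture at 37 C.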

[7] = target: Estrogen receptor (Homo sapiens) (UniProt P03372); assay: qHTS assay to identify small molecule antagonists of the estrogen receptor alpha (ER-alpha) signaling pathway using the BG1 cell line in the presence of 0.1 nM 17-beta-estradiol (AID 1259244); also: nearly all actives have a fitted effect of over 50% in size
Procedure, shortened: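 Cells: VM7Luc4E2, endogenous ER-alpha, 4x ERE-luc stable. Pre-culture 5 d, phenol red-free, charcoal-stripped FBS. Plated 24 h, compound + E2 0.1 nM final, 22 h 37C/5% CO2. Readout ONE-Glo luminescence.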

[8] = A CellTox Green Cytotoxicity Assay to monitor cytotoxicity in HepG2 cells - 32 hour (AID 1224883); also: nearly all actives have a fitted effect of over 50% in size
Procedure, shortened: as §1

[9] = A CellTox Green Cytotoxicity Assay to monitor cytotoxicity in HEK293 cells - 32 hour (AID 1224881); also: nearly all actives have a fitted effect of over 40% in size
Procedure, shortened: as §3

[10] = A CellTox Green Cytotoxicity Assay to monitor cytotoxicity in HEK293 cells - 16 hour (AID 1224888); also: nearly all actives have a fitted effect of over 35% in size
Procedure, shortened: as §3

[11] = A CellTox Green Cytotoxicity Assay to monitor cytotoxicity in HepG2 cells - 8 hour (AID 1224890); also: nearly all actives have a fitted effect of over 45% in size
Procedure, shortened: as §1

[12] = qHTS assay to identify small molecule antagonists of the estrogen receptor alpha (ER-alpha) signaling pathway using the BG1 cell line in the presence of 0.1 nM 17-beta-estradiol - cell viability counter screen (AID 1259241); also: nearly all actives have a fitted effect of over 40% in size
Procedure, shortened: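 CellTiter-Fluor read (30 min, 37C) on ER-alpha/ERE-luc VM7Luc4E2 cells; 22 hr compound treatment; agonist 0.1 nM E2 final; same-well multiplex.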

[13] = qHTS assay to identify small molecule antagonists of the androgen receptor (AR) signaling pathway using the MDA cell line in the presence of 0.5 nM R1881 - cell viability counter screen (AID 1259242); also: nearly all actives have a fitted effect of over 45% in size
Procedure, shortened: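 Counter screen for cytotoxicity run in the same wells as the AR antagonist reporter screen: MDA-kb2 cells were treated 16 hr with test compounds and 0.5 nM R1881, then live-cell protease activity was measured by fluorescence.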

[14] = A CellTox Green Cytotoxicity Assay to monitor cytotoxicity in HepG2 cells - 0 hour (AID 1224882); also: nearly all actives have a fitted effect of over 35% in size
Procedure, shortened: as §1
Potency is read from the fitted curve at half-maximal effect; tags tell the direction and shape of the fitted curve.

Sequence of UniProt P03372 (P03372 whole entry, looked up): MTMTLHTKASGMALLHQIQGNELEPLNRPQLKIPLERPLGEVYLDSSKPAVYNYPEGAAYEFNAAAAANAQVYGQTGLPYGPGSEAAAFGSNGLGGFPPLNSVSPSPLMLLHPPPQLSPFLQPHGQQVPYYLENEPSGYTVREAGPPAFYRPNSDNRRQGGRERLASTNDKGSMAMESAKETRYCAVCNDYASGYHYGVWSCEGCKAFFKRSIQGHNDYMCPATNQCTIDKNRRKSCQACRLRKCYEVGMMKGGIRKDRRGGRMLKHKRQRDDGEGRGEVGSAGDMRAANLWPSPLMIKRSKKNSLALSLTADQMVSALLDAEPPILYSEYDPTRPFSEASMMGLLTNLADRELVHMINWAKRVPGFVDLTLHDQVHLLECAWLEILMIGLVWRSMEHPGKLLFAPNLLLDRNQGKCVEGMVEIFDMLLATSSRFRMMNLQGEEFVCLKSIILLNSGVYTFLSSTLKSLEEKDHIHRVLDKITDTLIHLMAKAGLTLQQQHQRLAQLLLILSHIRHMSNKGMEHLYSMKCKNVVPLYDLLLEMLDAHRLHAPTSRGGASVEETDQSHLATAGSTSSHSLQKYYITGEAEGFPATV

For `CC(Oc1ccc(Cl)cc1Cl)C(=O)O` (stereo not drawn), the Potency [1] was inconclusive: 55.1 µM [activator, single point] and the Potency [2] was “inactive”.
For `O=[N+]([O-])c1ccc(Oc2ccc(Cl)cc2Cl)cc1`, the Potency [1] was inconclusive: 55.3 µM [activator, single point] and the Potency [3] was inconclusive: 49.2 µM [cytotoxic, single point] and inconclusive: 49 µM [cytotoxic, partial curve].
For `O=C1c2ccccc2C(=O)C1C(=O)C(c1ccccc1)c1ccccc1`, the Potency [4] was inconclusive: 23.9 µM [falling, partial curve] and the Potency [2] was inconclusive: 26.8 µM [cytotoxic, partial curve, poor fit].
In the case of `N#C/C=C/C#N`, the Potency [4] is reported as inconclusive: 45.7 µM [falling, partial curve], the Potency [5] is reported as “inactive” and the Potency [6] is reported as inconclusive: 64.5 µM [cytotoxic, single point]. For the same molecule, the Potency [3] was inconclusive: 40.7 µM [cytotoxic, partial curve] and the Potency [7] was “inactive”.
With `CN(C)c1ccccc1` the Potency [4] was “inactive” and the Potency [5] was inconclusive: 22.8 µM [activator, single point].
With `CCOP(=S)(OCC)Oc1ccc(Cl)cc1Cl` the Potency [4] was “inactive” and the Potency [2] was “inactive”.
With `COc1ccc2c3c1O[C@H]1[C@@H](O)C=C[C@H]4[C@@H](C2)N(C)CC[C@@]341` the Potency [4] was “inactive”, the Potency [8] was inconclusive: 34.1 µM [activator, partial curve] and the Potency [2] was “inactive”.
With `CCCCCCCCCCCCCC[P+](CCCCCC)(CCCCCC)CCCCCC` (tested in a mixture with another compound) the Potency [9] was active: 13.8 µM, the Potency [8] was active: 24.6 µM and the Potency [10] was active: 17.4 µM. The Potency [11] was active: 43.7 µM, the Potency [12] was inconclusive: 15.4 µM [cytotoxic, partial curve] and the Potency [13] was active: 19.3 µM. The Potency [7] was active: 3.86 µM.
For `COC(C)(C)CCCC(C)C/C=C/C(C)=C/C(=O)OC(C)C` (stereo not drawn), the Potency [9] was “inactive”, the Potency [5] was “inactive” and the Potency [3] was inconclusive: 42.9 µM [cytotoxic, partial curve, poor fit].
For `CCCCOC(=O)c1ccccc1N`, the Potency [9] was inconclusive: 49.3 µM [activator, single point], the Potency [8] was inconclusive: 55.3 µM [activator, single point] and the Potency [10] was inconclusive: 55.3 µM [activator, single point].
For `O=S(=O)(c1ccc(Cl)cc1)c1ccc(Cl)cc1`, the Potency [9] was inconclusive: 24.8 µM [activator, full curve, poor fit], the Potency [6] was inconclusive: 44.2 µM [cytotoxic, partial curve] and the Potency [3] was inconclusive: 55.6 µM [cytotoxic].
For `O=C(NC(=O)c1c(F)cccc1F)Nc1ccc(OC(F)(F)C(F)OC(F)(F)F)c(Cl)c1` (stereo not drawn), the Potency [9] was “inactive”.
For `CCC(C(N)=O)N1CCCC1=O` (stereo not drawn), the Potency [9] was “inactive” and the Potency [14] was inconclusive: 26.8 µM [activator, single point].
With `ClCc1ccc(Cl)cc1Cl` the Potency [9] was inconclusive: 54.9 µM [activator, single point], the Potency [5] was inconclusive: 54.9 µM [activator, single point] and the Potency [10] was inconclusive: 54.9 µM [activator, single point]. The Potency [11] was “inactive”.
For `OC(c1ccc(F)cc1)(c1cncnc1)c1ccccc1Cl` (stereo not drawn), the Potency [9] was inconclusive: 0.49 µM [activator, single point].
With `c1ccc2c(c1)CCNC2` the Potency [9] was “inactive”, the Potency [8] was “inactive” and the Potency [6] was inconclusive: 50.2 µM [cytotoxic, single point].
For `CCCC[N+]1(C)CCCCC1`, the Potency [9] was inconclusive: 55.7 µM [activator, single point] and inconclusive: 54.7 µM [activator, single point], the Potency [5] was inconclusive: 48.8 µM [activator, partial curve] and the Potency [10] was inconclusive: 55.7 µM [activator, single point] and inconclusive: 54.7 µM [activator, single point].
For `Nc1ccc(Cl)cc1C(=O)c1ccccc1`, the Potency [9] was inconclusive: 61.6 µM [activator, single point], the Potency [5] was inconclusive: 61.6 µM [activator, partial curve, poor fit] and the Potency [6] was inconclusive: 43.6 µM [cytotoxic, partial curve]. The Potency [3] was inconclusive: 27.5 µM [cytotoxic, partial curve, poor fit] and the Potency [10] was inconclusive: 54.9 µM [activator, single point].
For `CC(C)(C)OOC(C)(C)C`, the Potency [9] was “inactive” and the Potency [8] was “inactive”.
In the case of `O=C1CC(=O)NC(=O)N1`, the Potency [9] is reported as “inactive”.
In the case of `COc1ccc2c3c1O[C@H]1[C@H](O)CC[C@H]4[C@@H](C2)N(C)CC[C@@]341`, the Potency [9] is reported as inconclusive: 2.15 µM [activator, single point].
For `COP(N)(=O)SC` (stereo not drawn), the Potency [9] was inconclusive: 21.5 µM [activator, single point], the Potency [5] was inconclusive: 21.5 µM [activator, single point] and the Potency [10] was inconclusive: 21.5 µM [activator, single point].
In the case of `BrCCCBr`, the Potency [9] is reported as “inactive”.
In the case of `C=C(C)C(=O)OCCCCOC(=O)C(=C)C`, the Potency [9] is reported as “inactive” and the Potency [8] is reported as “inactive”.

Reference: PubChem BioAssay (Tox21)
